# Source: PubChem BioAssay AID624418 (National Center for Advancing Translational Sciences (NCATS), 2012)
# In all, about 410,000 compounds went through this assay and about 530 (0.13%) were called active. Inconclusive means that the source gave no clear call. Such entries were picked first, then a sample of the others. The call rests on the fitted dose curve; in most records, active means well fitted inhibition curve with a large enough effect; inconclusive means small, poorly fitted or top-dose-only effect, or another doubt; inactive means no such curve, though single readings can be large or run the other way. Potencies of inconclusive entries are doubtful fits and often do not repeat.
# Assay: qHTS of GLP-1 Receptor Inverse Agonists: Cytotox Screen
# Settings: HEK293 cAMP-luciferase reporter cells, luminescence, 24 h; series mostly up to 38.3 µM
# In short: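 Compound-treated cells are incubated 24 hr at 37 deg C under 5% CO2 after a 12 hour attachment period, then luciferase detection reagent is added and luminescence is measured following 12 min at room temperature; lowered signal indicates toxicity.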
# Potency means the concentration at half of the fitted maximal effect.
row,Structure (SMILES),Potency
1,Cn1nnnc1SCC(=O)Nc1nc(-c2ccccc2)c(-c2ccccc2)o1,"inconclusive: 28.2 µM [inhibitor, single point]"
2,Cc1cc(N/N=C/c2ccc([N+](=O)[O-])o2)nc2ccccc12,"inconclusive: 22.4 µM [inhibitor, single point]"
3,COc1ccc(NC(=O)C2Cc3c(-c4ccc5c(c4)OCO5)ccnc3O2)cn1 (stereo unspecified),"inconclusive: 8.91 µM [inhibitor, partial curve]"
4,Cc1scc(-c2n[nH]c(=S)n2C(C)c2ccccc2)c1C (stereo unspecified),"inconclusive: 22.4 µM [inhibitor, single point]"
5,FC(F)(F)Oc1ccc(NC(=S)NCc2ccccc2)cc1,"inconclusive: 20 µM [inhibitor, single point]"
6,CCNc1ccc2noc3c2c1C(=O)c1ccccc1-3,"inconclusive: 8.91 µM [inhibitor, partial curve, poor fit]"
7,CCOc1ccc2[nH]c(C(=O)N/N=C/c3ccc(OC)cc3)cc2c1,"inconclusive: 0.501 µM [inhibitor, full curve, poor fit]"
8,Cc1cccc(CCNS(=O)(=O)c2cnc[nH]2)c1,inactive
9,COc1ccc(/C=N/Nc2nccnc2Cl)cc1,"inconclusive: 8.91 µM [inhibitor, partial curve, poor fit]"
10,Cc1onc(-c2c(F)cccc2Cl)c1C(=O)OCC(=O)Nc1cccc(S(=O)(=O)N(C)C)c1,inactive
11,COc1ccc(-n2nc(C(=O)NCC(=O)Nc3cc(OC)c(OC)c(OC)c3)c3ccccc3c2=O)cc1,"inconclusive: 12.6 µM [inhibitor, single point]"
12,CCC(C)c1ccc(NC(=S)NCCn2cc(Br)cn2)cc1 (stereo unspecified),"inconclusive: 12.6 µM [inhibitor, single point]"
13,CCS(=O)(=O)N1CC(=O)N(c2cccc(C)c2C)C(C)(C(=O)NC2CCCCCC2)C1 (stereo unspecified),inactive
14,CCN(CC)c1ccc(N=C2C=CC(=O)C=C2NC(C)=O)cc1,"inconclusive: 11.2 µM [inhibitor, single point]"
15,O=S(=O)(NCc1ccco1)c1cccc(S(=O)(=O)N2CCCCC2)c1,inactive
16,CN(C)CCN(C(=O)/C=C/c1cccs1)c1nc2ccc(F)cc2s1,"inconclusive: 4.47 µM [inhibitor, partial curve]"
17,Cc1cc(C)c2ccc(N)nc2c1O,"inconclusive: 28.2 µM [inhibitor, single point]"
18,O=C1N/C(=N/N=C/c2ccccc2O)SC1Cc1ccc(F)cc1 (stereo unspecified),"inconclusive: 0.447 µM [inhibitor, full curve, poor fit]"
19,Cc1cc(C(=O)NN)c2cc(Br)ccc2n1,"inconclusive: 10 µM [inhibitor, single point]"
20,CCN(CC)CCNC(=O)c1sc2nc(C)cc(C)c2c1-n1cccc1,inactive
21,Cc1ccc2onc(CNC(=O)N(C)Cc3ccccc3)c2c1,inactive

row,Structure (SMILES),Potency
1,Cc1cc(C)c(O)c(CN(C)Cc2cc(Cl)cc(Cl)c2O)c1,"inconclusive: 3.55 µM [inhibitor, full curve, poor fit]"
2,O=C1c2[nH]nc(-c3ccccc3O)c2C(c2cccc(Br)c2)N1Cc1ccncc1 (stereo unspecified),"inconclusive: 11.2 µM [inhibitor, partial curve]"
3,CN(C(=O)CSc1cn(CC(=O)N2CCCC2)c2ccccc12)c1ccccc1,"inconclusive: 12.6 µM [inhibitor, partial curve, poor fit]"
4,CCn1c(=S)sc2c(=O)n(CC(=O)Nc3cccc(Cl)c3)c(C)nc21,"inconclusive: 22.4 µM [inhibitor, single point]"
5,COC(=O)C1=C(C(=O)OC)[C@@H]2N(C)c3ccc(OC)cc3[C@@]23C[C@@H](C(=O)OC)N(C(=O)NCCBr)C3=N1,"inconclusive: 14.1 µM [inhibitor, single point]"
6,COc1ccc(-c2cc(C(F)(F)F)nc(S(C)(=O)=O)n2)cc1OC,"inconclusive: 11.2 µM [inhibitor, single point]"
7,S=C(NCc1ccc2c(c1)OCO2)Nc1ccc(-c2nc3ccccc3[nH]2)cc1,"inconclusive: 28.2 µM [inhibitor, single point]"
8,C=CCN1CN(Cc2ccco2)CNC1=S,inactive
9,O=C(NC(=S)Nc1ccc(N2CCCCC2)cc1)c1ccc2c(c1)OCCO2,"inconclusive: 3.16 µM [inhibitor, partial curve, poor fit]"
10,CCOC(=O)C1=C(C)N(c2nonc2NC(C)=O)C(N)=C(C#N)C1c1ccccc1F (stereo unspecified),"inconclusive: 20 µM [inhibitor, single point]"
11,COc1cccc(N=Nc2c(=O)[nH]n3c(C)cc(C)nc23)c1,"inconclusive: 28.2 µM [inhibitor, single point]"
12,COc1ccc(C2SCC(C(=O)NCc3ccc(F)cc3)N2C(C)=O)cc1 (stereo unspecified),"inconclusive: 8.91 µM [inhibitor, partial curve, poor fit]"
13,COc1ccccc1NC(=O)CSc1nn2c(=O)c(C)nnc2s1,"inconclusive: 25.1 µM [inhibitor, single point]"
14,CSc1ccc(/C=N/NC(=O)c2cccc(Cl)c2)cc1,"inconclusive: 7.08 µM [inhibitor, partial curve, poor fit]"
15,O=C(NC(c1cccnc1)c1ccc2c(c1)OCO2)C1CCN(CCOc2ccc(Cl)cc2Cl)CC1 (stereo unspecified),"inconclusive: 12.6 µM [inhibitor, single point]"
16,CC(C)(C)CC(C)(C)NC(=S)NC1CCN(Cc2ccccc2)CC1,"inconclusive: 28.2 µM [inhibitor, single point]"
17,O=C(N/N=C/c1cc(O)ccc1[N+](=O)[O-])c1ccc2c(c1)OCCO2,"inconclusive: 12.6 µM [inhibitor, partial curve]"
18,CN(C)CCCN(C(=O)COc1ccc(Cl)cc1)c1nc2cc3c(cc2s1)OCO3,"inconclusive: 28.2 µM [inhibitor, single point]"
19,Cc1ccc(NC(=S)NCCc2ccccc2)nc1,"inconclusive: 2.51 µM [inhibitor, full curve]"
20,O=C(CN1CCC(C(=O)c2ccc(F)cc2)CC1)Nc1ccccc1Cl,inactive
